Laboratory results from PubChem BioAssay AID1460 (National Center for Advancing Translational Sciences (NCATS), 2008).
The whole screen tested about 270,000 compounds, of which about 5,800 (2.1%) were called active. The shares of active, inactive and inconclusive entries below differ from those in the screen. The call rests on the fitted dose curve; in most records, active means well fitted inhibition curve with a large enough effect; inconclusive means small, poorly fitted or top-dose-only effect; inactive means flat fitted curve, though single readings scatter. A potency beside an inconclusive call is a rough fit, not a confirmed value.
Further: nearly all actives have a fitted effect of over 55% in size.
On the % scale 0 is the no-effect control and ±100 the full control effect; potency means the concentration at half of the fitted maximal effect; tags describe the fitted curve by direction and shape.

Each molecule was assayed against Microtubule-associated protein tau (Homo sapiens) (UniProt P10636) (assay: qHTS for Inhibitors of Tau Fibril Formation, Thioflavin T Binding). Settings: recombinant tau K18 P301L (four-repeat tau fragment), heparin-induced fibrillization, ThT fluorescence; series mostly up to 57.4 µM; activity, negative = inhibition: at the top concentration.
Chain of UniProt P10636 (P10636 whole entry, looked up, the tested form may be a part): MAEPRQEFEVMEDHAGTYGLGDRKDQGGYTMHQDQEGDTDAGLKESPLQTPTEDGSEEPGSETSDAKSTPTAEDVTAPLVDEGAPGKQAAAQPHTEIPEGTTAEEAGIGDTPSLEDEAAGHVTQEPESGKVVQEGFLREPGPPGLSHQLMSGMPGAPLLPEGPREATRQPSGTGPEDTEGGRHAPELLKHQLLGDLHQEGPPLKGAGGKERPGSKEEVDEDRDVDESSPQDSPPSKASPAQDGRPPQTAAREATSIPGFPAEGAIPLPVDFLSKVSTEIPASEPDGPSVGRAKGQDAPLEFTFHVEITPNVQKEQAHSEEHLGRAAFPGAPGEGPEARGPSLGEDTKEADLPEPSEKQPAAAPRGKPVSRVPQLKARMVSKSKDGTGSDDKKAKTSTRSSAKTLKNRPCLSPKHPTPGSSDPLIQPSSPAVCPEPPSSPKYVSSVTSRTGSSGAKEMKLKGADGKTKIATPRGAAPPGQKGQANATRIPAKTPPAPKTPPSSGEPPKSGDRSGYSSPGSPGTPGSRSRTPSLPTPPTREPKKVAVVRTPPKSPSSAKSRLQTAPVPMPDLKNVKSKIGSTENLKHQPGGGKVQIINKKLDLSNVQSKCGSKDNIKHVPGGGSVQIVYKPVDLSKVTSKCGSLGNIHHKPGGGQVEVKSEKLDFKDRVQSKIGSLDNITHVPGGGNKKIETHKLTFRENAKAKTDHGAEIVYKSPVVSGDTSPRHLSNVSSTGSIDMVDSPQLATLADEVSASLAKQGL
Outline: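 In this qHTS, human K18 P301L tau is incubated with compound and heparin for 6 hr at 37 C, and Thioflavin T fluorescence then reports fibril load.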
For `CN(C)c1cccc2c(C=C(C#N)C#N)ccc(N(C)C)c12`, the Potency was inconclusive: 35.5 µM [inhibitor, single point]. In the case of `O=C(/C=C/c1ccc(F)cc1)c1ccc(N2CCOCC2)cc1`, the Potency is reported as inconclusive: 7.94 µM [inhibitor, partial curve]. In the case of `Cc1ccc(C(=O)OCC(=O)NCc2ccco2)cc1`, the Potency is reported as inconclusive: 25.1 µM [inhibitor, partial curve]. With `O=[N+]([O-])c1ccc(/C([O-])=C(/C(=S)NCc2ccco2)[n+]2ccccc2)cc1` the Potency was active: 25.1 µM. For `CCN(CC)c1ccc(-n2nc3cc(C)c(NC(=O)c4ccccc4C)cc3n2)c(C)c1`, the Potency was inconclusive: 0.447 µM [inhibitor, full curve]. With `COCCNC(=O)CCCCCN1C(=O)CCC1=O` the “activity, negative = inhibition” value was inactive: -1.51%. `COC(=O)[C@@H]1C[C@@]2(O)[C@H](O)[C@H](O)[C@H](O)C[C@H]2N1Cc1ccc(N2CCN(C)CC2)cc1` was tested, and the Potency was inconclusive: 31.6 µM [inhibitor, partial curve]. For `O=C(CSc1nc(-c2ccco2)cc(C(F)(F)F)n1)N1CCN(c2ccc(Cl)cc2)CC1`, the “activity, negative = inhibition” value was inactive: -15.1%. `Oc1ccc(-c2nc3ccc4ccccc4c3c3c2CCC3)cc1O` was tested, and the Potency was inconclusive: 10 µM [inhibitor, partial curve]. `COc1ccc(Cc2nnc(NS(=O)(=O)c3ccccc3)s2)cc1` was tested, and the “activity, negative = inhibition” value was inactive: -8.44%. With `COc1ccc(C2CC(=O)c3c(O)cc(O)cc3O2)cc1O` (stereo unspecified) the Potency was inconclusive: 10 µM [inhibitor, partial curve, poor fit]. For `O=C1C=CC(=O)N1c1ccc(Sc2ccc([N+](=O)[O-])cc2)cc1`, the Potency was inconclusive: 17.8 µM [inhibitor, partial curve, poor fit]. `COc1ccc(NC(=O)CSc2nnc(-c3ccccn3)n2N)cc1Cl` was tested, and the Potency was inconclusive: 3.98 µM [inhibitor, partial curve]. `O=C1C(=Cc2cccn2-c2ccc(O)cc2)C(=O)c2ccccc21` was tested, and the Potency was inconclusive: 14.1 µM [inhibitor, partial curve]. In the case of `NC(=O)CC(NC(=O)Cc1ccc(Cl)cc1)c1ccc(NCC2CC2)c([N+](=O)[O-])c1` (stereo unspecified), the Potency is reported as inconclusive: 25.1 µM [inhibitor, partial curve]. With `O=C1Nc2ccc(Br)cc2C12NNc1ccccc1O2` (stereo unspecified) the Potency was active: 8.91 µM. In the case of `Nc1nc2n(n1)C(c1ccc(Cl)cc1)CC(c1ccc(F)cc1)N2` (stereo unspecified), the “activity, negative = inhibition” value is reported as inactive: -0.112%. With `O=c1[nH]n2c(=O)c3c([nH]c2c1N=Nc1cccc(Cl)c1)CCCC3` the Potency was active: 2.82 µM. With `COc1ccc(C(=O)CSc2nnc(-c3cc4ccccc4cc3O)n2Cc2ccco2)cc1` the “activity, negative = inhibition” value was inactive: -6.09%. For `Cc1ccc(NC(=S)Nc2ccc(OC(F)F)c(Cl)c2)cc1Cl`, the “activity, negative = inhibition” value was inactive: 9.41%. For `COCCCN=C1NN=C(c2cc(C)n(Cc3ccco3)c2C)CS1`, the Potency was inconclusive: 35.5 µM [inhibitor, single point]. For `N#CC(c1cccc(Cl)c1)c1ccc2c(C(F)(F)F)cc(C(F)(F)F)nc2n1` (stereo unspecified), the Potency was inconclusive: 20 µM [inhibitor, partial curve]. For `COc1ccc(N2CCN(C(=O)CNS(=O)(=O)c3ccc(Br)s3)CC2)cc1`, the Potency was inconclusive: 31.6 µM [inhibitor, partial curve]. For `c1ccc(-c2ccc(C3=Nn4c(nnc4-c4cccs4)SC3)cc2)cc1`, the Potency was inconclusive: 20 µM [inhibitor, partial curve, poor fit]. `Cc1cccc(N2CCN(C(=O)c3noc4c3CCCCC4)CC2)c1C` was tested, and the Potency was inconclusive: 15.8 µM [inhibitor, partial curve]. With `O=C(NCCc1ccccc1)C1CCC(CNS(=O)(=O)c2cccs2)CC1` (stereo unspecified) the “activity, negative = inhibition” value was inactive: -10%. With `COc1ccc(CCN(C(=S)Nc2ccccc2)C2CC(=O)N(c3ccccc3)C2=O)cc1` (stereo unspecified) the “activity, negative = inhibition” value was inactive: 3.56%. `Cc1ccc(NC(=S)NC(=O)/C=C/c2ccco2)c(O)c1` was tested, and the Potency was inconclusive: 12.6 µM [inhibitor, partial curve]. In the case of `NC(=O)NC1CCCc2c1[nH]c1ccc(Cl)cc21` (stereo unspecified), the Potency is reported as inconclusive: 39.8 µM [inhibitor, single point]. `CCc1ccc(NC(=O)c2ccc3nc(N)sc3c2)cc1` was tested, and the Potency was inconclusive: 39.8 µM [activator, single point]. For `Cc1ccc2cccc(OCC(=O)Nc3ccc(N4CCOCC4)cc3)c2n1`, the Potency was inconclusive: 5.62 µM [inhibitor, partial curve]. With `Cc1cccc(Cn2nnc3c(=O)[nH]c(C4CCCN(C(=O)c5ccccc5Cl)C4)nc32)c1` (stereo unspecified) the “activity, negative = inhibition” value was inactive: -11.8%. With `O=c1cc(N2CCCCC2)c(-c2ccccc2)nn1Cc1c(Cl)cccc1Cl` the “activity, negative = inhibition” value was inactive: -17.6%. With `CCS(=O)(=O)N1CCN(c2ccc([N+](=O)[O-])c(NCC3CCCO3)c2)CC1` (stereo unspecified) the Potency was inconclusive: 14.1 µM [inhibitor, partial curve]. `Cc1c(C(=O)N/N=C/c2ccc(N(C)C)cc2)[nH]c2ccc(Cl)cc12` was tested, and the Potency was inconclusive: 0.708 µM [inhibitor, full curve]. In the case of `c1ccc(N2CCN(c3nc(-c4ccccn4)nc4ccccc34)CC2)cc1`, the Potency is reported as inconclusive: 20 µM [inhibitor, partial curve]. With `CCN1CCN(C(c2ccccc2Cl)c2c(O)cc(C)n(Cc3ccco3)c2=O)CC1` (stereo unspecified) the Potency was inconclusive: 15.8 µM [inhibitor, partial curve]. With `Cn1c(=Nc2ccccc2)sc2ccccc21` the Potency was inconclusive: 31.6 µM [inhibitor, single point]. With `Cc1ccc(N(C)C(=O)CN2C(=O)CCc3cc(S(=O)(=O)N4CCOCC4)ccc32)cc1` the “activity, negative = inhibition” value was inactive: -8.18%. In the case of `O=C(CSc1nc2cc(S(=O)(=O)N3CCOCC3)ccc2o1)Nc1c(F)cccc1F`, the Potency is reported as inconclusive: 44.7 µM [inhibitor, single point]. With `CCOc1ccc(CNC(=O)CCS(=O)(=O)c2cc3c4c(c2)CCN4C(=O)CC3)cc1OC` the Potency was inconclusive: 35.5 µM [inhibitor, single point]. `CC(C)=C(NC(=O)c1ccccc1)C(=O)N/N=C/c1ccc(O)cc1` was tested, and the Potency was inconclusive: 22.4 µM [inhibitor, single point]. With `COc1ccc(/C=N/NC(=O)c2[nH]nc3c2CCc2ccccc2-3)cc1OC` the Potency was inconclusive: 0.316 µM [inhibitor, partial curve]. In the case of `O=C(Nc1ccc(N2CCOCC2)cc1)Nc1ccc(Cl)c(Cl)c1`, the Potency is reported as active: 12.6 µM. `Cc1cc(NC(=O)c2ccc(Cn3nc(C)c(Br)c3C)o2)no1` was tested, and the “activity, negative = inhibition” value was inactive: -0.867%. In the case of `CCOC(=O)C1CCCN(C(=O)Cn2sc3nc(C)cc(C)c3c2=O)C1` (stereo unspecified), the Potency is reported as active: 11.2 µM. With `O=C(c1ccc2c(Cl)c3c(nc2c1)CCCC3)N1CCN(c2cccc(C(F)(F)F)c2)CC1` the Potency was inconclusive: 28.2 µM [inhibitor, single point]. In the case of `Cc1cc(C)nc(-n2nc(C)c(Sc3ccc(F)cc3)c2N)n1`, the “activity, negative = inhibition” value is reported as inactive: -16%. `CN(C)S(=O)(=O)N1CCN(c2ccc([N+](=O)[O-])c(N3CCCCC3)c2)CC1` was tested, and the Potency was inconclusive: 15.8 µM [inhibitor, partial curve]. `COC(=O)c1ccc(-c2noc(CN(C)Cc3ccncc3C)n2)cc1` was tested, and the Potency was inconclusive: 8.91 µM [inhibitor, partial curve]. `Cc1ccc(N2CCN(C(=O)c3cnn(-c4ccc(C)c(C)c4)c3C3CCNCC3)CC2)c(C)c1` was tested, and the Potency was inconclusive: 20 µM [inhibitor, single point]. `O=C(N/N=C/c1ccccn1)c1[nH]c2ccc([N+](=O)[O-])cc2c1-c1ccccc1` was tested, and the Potency was inconclusive: 28.2 µM [inhibitor, partial curve]. `O=C(CNC(=O)c1ccc(F)cc1)OCc1cc(=O)n2nc(C3CCCCC3)sc2n1` was tested, and the Potency was inconclusive: 17.8 µM [inhibitor, partial curve]. With `CCCN1CCN(C(=S)Nc2ccc3nc(N4CCN(CC)CC4)cc(C)c3c2)CC1` the Potency was inconclusive: 20 µM [inhibitor, partial curve]. `Clc1ccc(-c2nnc(SCc3nc4ccccc4[nH]3)o2)c(Cl)c1` was tested, and the Potency was inconclusive: 15.8 µM [inhibitor, partial curve]. `COC(=O)c1ccccc1NC(=O)CSc1[nH]c(=O)cc(C)c1C#N` was tested, and the “activity, negative = inhibition” value was inactive: -16.9%. With `Cc1ccc(-c2cc(-c3ccccc3O)nc(N/N=C/c3cccnc3)n2)cc1` the Potency was inconclusive: 25.1 µM [inhibitor, partial curve]. For `COc1ccc(NCc2nnc(SCC(=O)c3ccc(C)cc3)o2)cc1`, the Potency was inconclusive: 28.2 µM [inhibitor, partial curve]. In the case of `O=C(N/N=C/c1ccccn1)c1cccnc1`, the Potency is reported as inconclusive: 44.7 µM [inhibitor, single point]. In the case of `Cc1cc(/C=C2/NC(=O)N(Cc3ccccc3F)C2=O)c(C)n1C`, the Potency is reported as inconclusive: 14.1 µM [inhibitor, partial curve]. `OCCn1c(-c2ccc3c(c2)OCO3)csc1=Nc1ccccc1` was tested, and the Potency was inconclusive: 15.8 µM [inhibitor, partial curve]. In the case of `Nc1c(C(=O)NCc2ccc(Cl)cc2)sc2nc(-c3ccc(F)cc3)ccc12`, the Potency is reported as inconclusive: 1.41 µM [inhibitor, full curve]. With `O=c1/c(=C\c2ccc(O)cc2)sc2n1C(c1ccccc1)C(c1ccccc1)=NN=2` (stereo unspecified) the Potency was inconclusive: 12.6 µM [inhibitor, partial curve]. With `C=CC[C@@](C(C)=O)(C(=O)OC)C(NC(=O)OC(C)(C)C)c1ccccc1` (stereo partly specified) the Potency was inconclusive: 35.5 µM [inhibitor, single point]. In the case of `O=c1[nH]c(-c2ccc(O)cc2)nc2scc(-c3cccs3)c12`, the Potency is reported as inconclusive: 17.8 µM [inhibitor, partial curve, poor fit]. For `CC(=O)c1sc(N/N=C\c2ccccc2O)nc1C`, the Potency was inconclusive: 7.94 µM [inhibitor, full curve].
